About 530 (0.13%) of roughly 410,000 compounds were called active. The inconclusive results got no clear call from the source; some entries with a clear call stand among them for comparison. The call rests on the fitted dose curve; in most records, active means well fitted inhibition curve with a large enough effect; inconclusive means small, poorly fitted or top-dose-only effect, or another doubt; inactive means no such curve, though single readings can be large or run the other way. Potencies beside an inconclusive call are fits to weak or partial responses and may not hold up.
Assay: qHTS of GLP-1 Receptor Inverse Agonists: Cytotox Screen
Conditions: HEK293 cAMP-luciferase reporter cells, luminescence, 24 h; series mostly up to 38.3 µM
How it was run: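 To flag toxic compounds, the library was rerun on cells for 24 hr at 37 deg C and 5% CO2. Viability-linked luminescence was captured 12 min after adding luciferase detection reagent.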
Potency means the concentration at half of the fitted maximal effect.

SMILES | Potency
CCN(CC(=O)Nc1c(F)cccc1F)C(=O)c1cc(-c2cccs2)nn1-c1ccccc1 | inconclusive: 11.2 µM [inhibitor, partial curve]
CCN(CC(=O)Nc1cc(C)nn1-c1nc(C)cc(C)n1)Cc1ccccc1 | inconclusive: 28.2 µM [inhibitor, single point]
COc1ccc(CCC(=O)NCCc2csc(-c3ccc(F)cc3)n2)cc1 | inactive
O=C(CCc1ccccc1)Nc1ncc([N+](=O)[O-])s1 | inconclusive: 11.2 µM [inhibitor, single point]
Cc1cccc(NC(=S)NCC(C)CSc2ccc(Cl)cc2)c1 (stereo not drawn) | inconclusive: 11.2 µM [inhibitor, partial curve, poor fit]
COc1ccc(OC)c(NC(=O)CSc2nc(=O)n(CCN(C)C)c3c2CCC3)c1 | inactive
CCOC(=O)/C(C#N)=C/c1c(N2CCCCCC2)nc2ccccn2c1=O | inconclusive: 20 µM [inhibitor, partial curve, poor fit]
O=C(CN1C(=O)/C(=C2\SC(=S)N(C3CCS(=O)(=O)C3)C2=O)c2ccccc21)Nc1ccc(F)cc1 (stereo not drawn) | inconclusive: 22.4 µM [inhibitor, single point]
COc1ccc(CN(C)CC(O)COC(c2ccc(OC)cc2)c2ccc(OC)cc2)cc1 (stereo not drawn) | inconclusive: 14.1 µM [inhibitor, single point]
Cc1ccc(S(=O)(=O)Nc2ccccc2C(=O)Nc2nc(-c3ccc(F)cc3)cs2)cc1 | inconclusive: 1.78 µM [inhibitor, full curve]
CC(C)C[C@H](NC(=O)c1[nH]cnc1C(=O)N[C@H](C)c1ccccc1)C(=O)OCc1ccccc1 | inconclusive: 3.55 µM [inhibitor, partial curve, poor fit]
O=C(CCl)Nc1cccc(Oc2cnccn2)c1 | inconclusive: 11.2 µM [inhibitor, single point]
C#CCOCCOCCOCCNc1nc(N2CCN(C(=O)[C@H](CCC(=O)O)n3cc(C(N)CO)nn3)CC2)nc(N2CCN(C(=O)[C@H](Cc3ccc(O)cc3)n3cc(C(N)[C@H](C)CC)nn3)CC2)n1 (stereo partly drawn) | inconclusive: 31.6 µM [inhibitor, partial curve, poor fit]
COc1ccc(NC(=O)Nc2ccc3nccnc3c2)cc1 | inconclusive: 28.2 µM [inhibitor, single point]
C=C(C)C(=O)Oc1ccc(N=Nc2ccc(C)cc2)ccc1=O | inconclusive: 22.4 µM [inhibitor, single point]
O=C(Nc1cccc(S(=O)(=O)N2CCCCC2)c1)c1ccc2c(=O)n3c(nc2c1)CCCCC3 | inconclusive: 8.91 µM [inhibitor, partial curve, poor fit]
S=c1[nH]cc(Cc2ccccc2)s1 | inconclusive: 28.2 µM [inhibitor, single point]
COc1ccc(C(=O)NC(=S)Nc2ccccc2N2CCOCC2)cc1Br | inactive
Cc1nn(Cc2ccc(Cl)cc2Cl)c(C)c1NC(=O)CCl | inconclusive: 6.31 µM [inhibitor, partial curve, poor fit]
c1cc2cc(CNc3nc(NCC4CC4)nc4ccsc34)ccc2o1 | inconclusive: 28.2 µM [inhibitor, single point]
CCOC(=O)[C@@H]1[C@H]2COc3ccc(Br)cc3[C@@H]2N2C(=O)N(c3ccccc3)C(=O)[C@]12C | inconclusive: 28.2 µM [inhibitor, single point]

SMILES | Potency
CSc1ccc(CN(C)C(=O)c2cccc(S(=O)(=O)NCc3ccccc3)c2)cc1 | inactive
C=CCn1c2ccccc2c(=O)c2cc(C#Cc3ccccn3)ccc21 | inactive
Cc1cc(C(=O)Nc2sc3c(c2C#N)CCC3)no1 | inconclusive: 2.51 µM [inhibitor, partial curve, poor fit]
COc1cccc(CNC(=O)CCC2CCCN(c3cc(C)nc(N4CCCC4)n3)C2)c1 (stereo not drawn) | inconclusive: 11.2 µM [inhibitor, single point]
CSCCC(NC(=O)c1occc1C)C(=O)O (stereo not drawn) | inactive
CC1CCCN(CCCNC(=O)c2cc(Sc3ccc(F)cc3)nc3ccccc23)C1 (stereo not drawn) | inconclusive: 28.2 µM [inhibitor, single point]
COc1ccccc1Cc1c(C2CCCCC2)nc2ccc(Cl)cn12 | inconclusive: 10 µM [inhibitor, single point]
CCC(=O)N1CCN(c2cc(N3CCCC3)c(F)cc2[N+](=O)[O-])CC1 | inconclusive: 17.8 µM [inhibitor, single point]
CCc1ccc(NC(=O)CSc2nnc(CNC(=O)c3cccs3)o2)cc1 | inactive
CC(C)n1nc(C(=O)Nc2nc3ccccc3[nH]2)c2ccccc2c1=O | inconclusive: 14.1 µM [inhibitor, single point]
CN1CCN(c2ccc(NC(=O)c3ccc([N+](=O)[O-])o3)cc2Cl)CC1 | inconclusive: 10 µM [inhibitor, partial curve]
Clc1ccc(-c2nc3ccccn3c2CN2CCCCC2)cc1 | inconclusive: 15.8 µM [inhibitor, single point]
COc1ccc(OC)c(NC(=O)C2CCCN(S(=O)(=O)c3cccc4nonc34)C2)c1 (stereo not drawn) | inconclusive: 0.501 µM [inhibitor, full curve, poor fit]
CC(=O)Nc1ccc(NC(=O)c2oc3c(c2C)-c2nn(Cc4ccccc4Cl)cc2CC3)cc1 | inconclusive: 10 µM [inhibitor, partial curve]
CC1CCCC(C)N1CC(O)COC1CCC(C(C)(C)C)CC1 (stereo not drawn) | inconclusive: 4.47 µM [inhibitor, partial curve, poor fit]
CCOC(=O)N1CCc2c(sc3c2c(=O)n(Cc2ccccc2)c(=O)n3CC(=O)Nc2cccc(CC)c2)C1 | inactive
Cc1ccccc1Nc1cc(C(=O)NCc2ccco2)c2ccccc2n1 | inconclusive: 11.2 µM [inhibitor, partial curve, poor fit]
CCC1CCC/C1=N\NC(=O)c1ccccc1C (stereo not drawn) | inconclusive: 28.2 µM [inhibitor, single point]
CCCn1nnc(NC(=S)NC(=O)CC)n1 | inconclusive: 12.6 µM [inhibitor, single point]
CCN1C(=O)C(CC(=O)Nc2ccccc2Cl)N(NC(=O)c2cccc(F)c2)C1=S (stereo not drawn) | inactive
CC1(C(=O)Nc2cccnc2)Cc2c(-c3ccc4c(c3)OCO4)ccnc2O1 (stereo not drawn) | inconclusive: 12.6 µM [inhibitor, partial curve, poor fit]

SMILES | Potency
CC(=O)[C@@]1(O)C(C)CC2C3C=C(C)C4=Cc5c(cnn5-c5ccccc5)C[C@]4(C)C3C(O)C[C@@]21C (stereo partly drawn) | inconclusive: 7.94 µM [inhibitor, partial curve, poor fit]
CCOc1ccc(NC2=CC(=O)C(=O)c3ccccc32)cc1 | inconclusive: 4.47 µM [inhibitor, partial curve]
N#Cc1ccccc1S(=O)(=O)N1CCN(CC(=O)NCC2(N3CCOCC3)CCCCC2)CC1 | inconclusive: 1.41 µM [inhibitor, partial curve, poor fit]
Cc1ccc(S(=O)(=O)N2CCN(C)CC2)cc1[N+](=O)[O-] | inactive
COc1ccc2c(CNCc3cccs3)c(C(=O)O)n(Cc3ccc(F)cc3)c2c1 | inconclusive: 11.2 µM [inhibitor, partial curve, poor fit]
CCN(Cc1nc2ccccc2c(=O)[nH]1)C(=O)c1ccc(C)c(NC(=O)c2ccco2)c1 | inconclusive: 12.6 µM [inhibitor, single point]
Cc1ccc(-c2cc(C(=O)Nc3nccs3)c3ccccc3n2)c(C)c1 | inactive
Cc1occc1C(=O)O/N=C(\N)c1ccccc1 | inconclusive: 28.2 µM [inhibitor, single point]
Oc1ccc(/C=N/N=C(c2ccccc2)c2ccccc2)c(O)c1O | inconclusive: 28.2 µM [inhibitor, single point]
CCN(CC)CCNC(=O)CCc1c(C)nc2c(c(C)nn2-c2ccc(C)cc2)c1C | inconclusive: 10 µM [inhibitor, single point]
Cc1ccc(-n2nc3c(=O)n(C(C)C(=O)NCc4ccc(OC(C)C)cc4)nc(C)c3c2C)cc1 (stereo not drawn) | inconclusive: 2.24 µM [inhibitor, full curve]
CCCN1C(=O)c2cc(C(=O)Nc3cccc(C(C)=O)c3)ccc2C1Nc1cccc(C(C)=O)c1 (stereo not drawn) | inconclusive: 7.08 µM [inhibitor, partial curve, poor fit]
CN(C(=O)c1ccc(NC(=O)C2CCCN(C(=O)OC(C)(C)C)C2)cc1)C1CCC1 (stereo not drawn) | inactive
C=CCNC(=S)N1CC2(C)CN(C(=S)NCC=C)CC(C)(C1)C2=O | inactive
OC(C#Cc1ccccc1)(c1ccccc1)c1ccccc1 | inconclusive: 10 µM [inhibitor, single point]
CC(/C=C\C=C\c1ccccc1)=N\NC(=O)c1cncc(Br)c1 | inactive
Cc1cc(C)c2c(n1)nn1c(NCCCN(C)C)cc(C)nc21 | inactive
O=C(COC(=O)/C=C/C(=O)N1CCN(c2ccccc2)CC1)NC(c1ccccc1)c1ccccc1 | inactive
COC(=O)c1ccc(C2NC(=S)N(c3ccccc3)C(C)=C2C(=O)Nc2ccccc2OC)cc1 (stereo not drawn) | inactive
CC(=O)Nc1cccc(-c2ccnc3c2CC(C)(C(=O)Nc2cccc(Oc4ccccc4)c2)O3)c1 (stereo not drawn) | inconclusive: 31.6 µM [inhibitor, single point]
Cc1cc(N/N=C2/CCCc3ccccc32)nc2ccccc12 | inconclusive: 12.6 µM [inhibitor, single point]

Reference: PubChem BioAssay AID624418 (National Center for Advancing Translational Sciences (NCATS), 2012)
